{"source": "patent US20070219159A1", "about": "“CYCLODEXTRIN COMPOSITIONS AND METHODS OF TREATING VIRAL INFECTIONS” (priority 2002, published 2007)", "test_system": "d27-lacZ1 (β-galactosidase expressing recombinant HSV-1)", "details": "pre- plus post-infection treatment, in situ staining 8-12 hours PI, ACV 400 μg/ml", "note": "Like-named read-outs stand apart in the source and are kept apart here."}
{"smiles": "OC[C@H]1O[C@@H]2O[C@H]3[C@H](O)[C@@H](O)[C@@H](O[C@H]4[C@H](O)[C@@H](O)[C@@H](O[C@H]5[C@H](O)[C@@H](O)[C@@H](O[C@H]6[C@H](O)[C@@H](O)[C@@H](O[C@H]7[C@H](O)[C@@H](O)[C@@H](O[C@H]8[C@H](O)[C@@H](O)[C@@H](O[C@H]1[C@H](O)[C@H]2O)O[C@@H]8CO)O[C@@H]7CO)O[C@@H]6CO)O[C@@H]5CO)O[C@@H]4CO)O[C@@H]3CO", "note": "[BCD, β-cyclodextrin]", "values": [{"measurement": "expression of ICP27 promoter driven β-galactosidase reporter gene", "result": "almost complete virus protection"}, {"measurement": "expression of ICP27 promoter driven β-galactosidase reporter gene", "setting": "listed as β-CD", "result": "almost totally inhibited"}]}
